From paper PMC4336329 (PLoS ONE, 2015)
In all, about 310,000 compounds went through this assay and about 14,000 (4.5%) showed an effect of 50% or more. Effects have a minus sign here. The list shows a part of the results.

These compounds were tested against human ether-à-go-go-related gene (hERG) potassium channel (human, UniProt Q12809) (assay: primary screen, population patch clamp on CHO cells stably expressing hERG).
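Note: peak tail current of the secondary pulse compared with the same well before compound.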

human ether-à-go-go-related gene (hERG) potassium channel, sequence (Q12809 whole entry, looked up): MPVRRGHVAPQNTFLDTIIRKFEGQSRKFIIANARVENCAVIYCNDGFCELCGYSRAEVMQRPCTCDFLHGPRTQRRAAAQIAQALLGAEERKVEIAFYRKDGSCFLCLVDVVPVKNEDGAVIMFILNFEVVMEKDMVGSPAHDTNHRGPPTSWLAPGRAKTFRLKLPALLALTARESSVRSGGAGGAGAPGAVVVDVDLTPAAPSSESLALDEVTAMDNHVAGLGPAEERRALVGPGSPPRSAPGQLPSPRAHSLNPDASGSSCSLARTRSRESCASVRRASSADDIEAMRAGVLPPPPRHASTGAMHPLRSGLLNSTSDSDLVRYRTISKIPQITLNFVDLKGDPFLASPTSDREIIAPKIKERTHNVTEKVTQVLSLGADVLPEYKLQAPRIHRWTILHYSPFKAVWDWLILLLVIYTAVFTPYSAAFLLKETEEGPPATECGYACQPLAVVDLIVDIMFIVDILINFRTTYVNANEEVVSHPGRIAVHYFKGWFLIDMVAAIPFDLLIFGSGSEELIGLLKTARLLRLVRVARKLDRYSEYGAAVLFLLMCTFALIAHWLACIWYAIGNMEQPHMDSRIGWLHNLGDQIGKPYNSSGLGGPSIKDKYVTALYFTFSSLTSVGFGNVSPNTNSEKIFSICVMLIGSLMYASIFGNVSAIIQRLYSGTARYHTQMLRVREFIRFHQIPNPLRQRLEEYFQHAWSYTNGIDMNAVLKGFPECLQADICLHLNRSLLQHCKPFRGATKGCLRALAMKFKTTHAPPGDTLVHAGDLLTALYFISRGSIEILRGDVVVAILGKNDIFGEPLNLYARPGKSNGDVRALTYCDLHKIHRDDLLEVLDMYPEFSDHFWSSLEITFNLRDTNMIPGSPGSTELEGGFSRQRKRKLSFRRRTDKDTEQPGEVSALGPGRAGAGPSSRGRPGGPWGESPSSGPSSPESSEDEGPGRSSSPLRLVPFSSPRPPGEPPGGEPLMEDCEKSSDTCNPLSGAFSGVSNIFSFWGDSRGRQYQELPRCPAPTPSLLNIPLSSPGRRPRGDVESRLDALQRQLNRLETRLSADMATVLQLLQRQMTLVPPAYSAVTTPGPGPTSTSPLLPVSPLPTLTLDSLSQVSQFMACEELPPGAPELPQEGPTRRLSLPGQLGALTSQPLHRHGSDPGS

For `O=S(=O)(c1ccccc1)N1CCN(C(=S)NCCCN2CCOCC2)CC1`, which “hERG current change (%, negative = inhibition) at 10uM” value is on record?
The value was 6.62%.

How did the “hERG current change (%, negative = inhibition) at 10uM” value turn out when `Br.CC1=CS(=O)(=O)CC1Sc1ncn[nH]1` (stereo not shown) was run?
Its value is 10.2%.

How did the “hERG current change (%, negative = inhibition) at 10uM” value turn out when `CC(C)N(C(=O)NC(=O)Nc1ccccn1)S(C)(=O)=O` was run?
Its value is 2.35%.

Which “hERG current change (%, negative = inhibition) at 10uM” value does the source give for `Cc1ccc(C(=O)NCCNc2ccc(Cl)cc2[N+](=O)[O-])o1` here?
Its value is -60%.

Which “hERG current change (%, negative = inhibition) at 10uM” value does the source give for `COc1ccc2c(CC(=O)Nc3ncc(C)s3)coc2c1` here?
Its value is 5.72%.

For `CCOC(=O)C1CCCN(S(=O)(=O)c2cccc3cccnc23)C1` (stereo not shown), which “hERG current change (%, negative = inhibition) at 10uM” value is on record?
Its value is -14.9%.

For `COc1cccc(N2C(C(C)=O)=NN(c3ccccc3)C2c2ccc(N3CCOCC3)cc2)c1` (stereo not shown), which “hERG current change (%, negative = inhibition) at 10uM” value is on record?
Its value is -1.98%.

For `COc1ccc(C2/C=C\CN(S(=O)(=O)c3ccc4ccccc4c3)CC(=O)N2Cc2ccc(F)cc2)cc1` (stereo not shown), which “hERG current change (%, negative = inhibition) at 10uM” value is on record?
The value was 8.33%.

With `CCc1c(C)sc2nc3c(C(=O)N4CCOCC4)cc(C(=O)c4cc(F)ccc4O)cn3c(=O)c12` as the compound, how does the “hERG current change (%, negative = inhibition) at 10uM” value read?
Its value is 12.7%.

How did the “hERG current change (%, negative = inhibition) at 10uM” value turn out when `CC(=O)/C(C#N)=C1\NC(=O)C(Cc2ccc(F)cc2)S1` (stereo not shown) was run?
Its value is 19.1%.

`COc1ccc(OCCSc2nc(N)cc(N)n2)cc1` was tested. Which “hERG current change (%, negative = inhibition) at 10uM” value did it give?
The value was -4.16%.

With `Cc1cc2nc(-c3ccncc3)cc(C(F)(F)F)n2n1` as the compound, how does the “hERG current change (%, negative = inhibition) at 10uM” value read?
The value was 10.8%.

How did the “hERG current change (%, negative = inhibition) at 10uM” value turn out when `CCCCn1c(N)c(N(CCC(C)C)C(=O)C2CC(=O)N(Cc3ccc(C)cc3)C2)c(=O)[nH]c1=O` (stereo not shown) was run?
The value was 12.1%.

Which “hERG current change (%, negative = inhibition) at 10uM” value does the source give for `CCOc1ccc(/C=N/NC(=O)CCC(=O)Nc2ccc(F)cc2)cc1` here?
Its value is 19.6%.

With `O=c1oc2c(CN3CCCCC3)c(O)ccc2c2c1CCCCC2` as the compound, how does the “hERG current change (%, negative = inhibition) at 10uM” value read?
The value was -32.2%.

`O=C(NCCCc1ccccc1)c1cccc(S(=O)(=O)N2CCOCC2)c1` was tested. Which “hERG current change (%, negative = inhibition) at 10uM” value did it give?
Its value is -30.6%.

`CC1CCCC(C)N1CCCNC(=O)C1CCCN(c2ncnc3c2nc2n3CCCCC2)C1` (stereo not shown) was tested. Which “hERG current change (%, negative = inhibition) at 10uM” value did it give?
The value was 8.21%.

`CCCCNC(=O)C1CCN(C(=O)Nc2ccc(C)cc2)CC1` was tested. Which “hERG current change (%, negative = inhibition) at 10uM” value did it give?
Its value is 4.75%.

How did the “hERG current change (%, negative = inhibition) at 10uM” value turn out when `N#Cc1cc(N)ccc1-n1cccc1` was run?
The value was 14.8%.

For `COc1ccc(CCC(=O)NC(C)c2ccccc2)cc1OC` (stereo not shown), which “hERG current change (%, negative = inhibition) at 10uM” value is on record?
Its value is 20.8%.

How did the “hERG current change (%, negative = inhibition) at 10uM” value turn out when `O=C(CCCN1C(=O)/C(=C/c2cccc(Br)c2)SC1=S)Nc1cccnc1` was run?
Its value is 14.1%.

`COCc1[nH]nc2c1C(c1ccnc3ccccc13)C(C#N)=C(N)O2` (stereo not shown) was tested. Which “hERG current change (%, negative = inhibition) at 10uM” value did it give?
The value was 3.45%.

Which “hERG current change (%, negative = inhibition) at 10uM” value does the source give for `Cc1ccc(C(=O)NNC(=O)c2ccc(-n3cncn3)c([N+](=O)[O-])c2)cc1` here?
The value was 12.2%.

Which “hERG current change (%, negative = inhibition) at 10uM” value does the source give for `O=C(COC(=O)c1ccc(S(=O)(=O)N2CCOCC2)cc1)NCc1cccs1` here?
Its value is 2.5%.

For `COc1cc(/C=N/NC(=O)c2ccncc2)ccc1OC(=O)c1ccccc1Cl`, which “hERG current change (%, negative = inhibition) at 10uM” value is on record?
Its value is -50.8%.

How did the “hERG current change (%, negative = inhibition) at 10uM” value turn out when `COc1cc(/C=C2\CCCc3c2nc2ccccc2c3C(=O)O)cc(OC)c1O` was run?
The value was 1.84%.

Which “hERG current change (%, negative = inhibition) at 10uM” value does the source give for `COc1ccccc1/C=C/C(=O)Nc1ccc(S(=O)(=O)Nc2cc(C)on2)cc1` here?
The value was 3.53%.

`C/C=C(\C)CN1CCC(n2nccc2NC(=O)c2ccc3c(c2)OCO3)CC1` was tested. Which “hERG current change (%, negative = inhibition) at 10uM” value did it give?
The value was -26.5%.

`Cc1ccc(CN2C(=O)C(C)Nc3ncnc(N4CCOCC4)c32)cc1.O=C(O)C(F)(F)F` (stereo not shown) was tested. Which “hERG current change (%, negative = inhibition) at 10uM” value did it give?
Its value is 8.87%.

`Cc1ccc(NC(=O)c2ccccc2[N+](=O)[O-])nc1` was tested. Which “hERG current change (%, negative = inhibition) at 10uM” value did it give?
Its value is 2.35%.

For `CC(C)(C)n1ncc2c(=O)n(CC(=O)NCc3ccccc3)cnc21`, which “hERG current change (%, negative = inhibition) at 10uM” value is on record?
Its value is 14%.

With `Cc1c(O[C@@H]2O[C@H](CO)[C@@H](O)[C@H](O)[C@H]2O)ccc2c1oc(=O)c1ccccc12` as the compound, how does the “hERG current change (%, negative = inhibition) at 10uM” value read?
Its value is 22.5%.

With `Cc1ccc(NC(=O)Nc2c(C)n(C)n(-c3ccccc3)c2=O)cc1` as the compound, how does the “hERG current change (%, negative = inhibition) at 10uM” value read?
Its value is 3.37%.

With `O=c1[nH]c2ccc(NC(=S)NC3CCCCC3)cc2[nH]1` as the compound, how does the “hERG current change (%, negative = inhibition) at 10uM” value read?
The value was 13.7%.

`CCO[C@H]1OC(C(=O)NC2CC2)=C[C@@H](c2ccc(Br)cc2)[C@@H]1CCCO` was tested. Which “hERG current change (%, negative = inhibition) at 10uM” value did it give?
Its value is -10.7%.

For `C=CCNS(=O)(=O)c1ccc2c(c1)n(C)c(=O)n2C`, which “hERG current change (%, negative = inhibition) at 10uM” value is on record?
Its value is -11.5%.

`COc1ccc(-c2cnnc(N/N=C/c3ccc(O)cc3)n2)cc1` was tested. Which “hERG current change (%, negative = inhibition) at 10uM” value did it give?
Its value is 9.11%.

For `CC(=O)NNc1cc(N2CCOCC2)nc(N2CCOCC2)n1.Cl`, which “hERG current change (%, negative = inhibition) at 10uM” value is on record?
The value was 19.6%.

For `C/C(=N/Oc1nc(C)cc(C)n1)c1ccccc1`, which “hERG current change (%, negative = inhibition) at 10uM” value is on record?
The value was 8.93%.

With `CCOC(=O)C1CCCN(c2c(NCCc3cccc(C)c3)c(=O)c2=O)C1` (stereo not shown) as the compound, how does the “hERG current change (%, negative = inhibition) at 10uM” value read?
Its value is -7.78%.

With `Cc1ccc2c(c1)CC1(CN2C)C(=O)NC(=O)N(c2cccc(C)c2C)C1=O` (stereo not shown) as the compound, how does the “hERG current change (%, negative = inhibition) at 10uM” value read?
Its value is -15.4%.

How did the “hERG current change (%, negative = inhibition) at 10uM” value turn out when `COc1ccc(S(=O)(=O)N2CCN(C(=O)CCC3CCCC3)CC2)cc1` was run?
Its value is -42.7%.

With `Cc1cccc(NCN2C(=O)c3ccccc3C2=O)c1` as the compound, how does the “hERG current change (%, negative = inhibition) at 10uM” value read?
The value was 9.07%.

How did the “hERG current change (%, negative = inhibition) at 10uM” value turn out when `COc1cc(SC)ccc1C(=O)NC(C)C` was run?
The value was 16.3%.

Which “hERG current change (%, negative = inhibition) at 10uM” value does the source give for `O=C(N/N=C/c1ccc([N+](=O)[O-])s1)c1ccccc1Br` here?
The value was 14.6%.

Which “hERG current change (%, negative = inhibition) at 10uM” value does the source give for `CCOCCCNC(=O)CN1C(=O)/C(=C\c2ccc(C)cc2)Sc2ccccc21` here?
Its value is -29.2%.

With `O=C(CNS(=O)(=O)c1cccc2nsnc12)NCc1ccc(Cl)cc1` as the compound, how does the “hERG current change (%, negative = inhibition) at 10uM” value read?
Its value is -2.23%.

Which “hERG current change (%, negative = inhibition) at 10uM” value does the source give for `Cc1ccc(C(=O)Nc2ccccc2N2CCOCC2)cc1S(=O)(=O)N1CCOCC1` here?
The value was -55.3%.

How did the “hERG current change (%, negative = inhibition) at 10uM” value turn out when `Cc1ccc(S(=O)(=O)CC(=O)Nc2ccc(S(=O)(=O)Nc3onc(C)c3C)cc2)cc1` was run?
Its value is 1.99%.

How did the “hERG current change (%, negative = inhibition) at 10uM” value turn out when `COc1ccc2c(c1)nc(SCC(C)O)n2C` (stereo not shown) was run?
The value was 18%.

How did the “hERG current change (%, negative = inhibition) at 10uM” value turn out when `O=C(COC(=O)CCc1ccc(S(=O)(=O)N2CCOCC2)cc1)Nc1ccc(Cl)cn1` was run?
Its value is -33.4%.

With `COC(=O)C1CCN(C(=O)C2CCN(C(=O)[C@@H](NS(=O)(=O)c3ccc(C)cc3)C(C)C)CC2)CC1` as the compound, how does the “hERG current change (%, negative = inhibition) at 10uM” value read?
The value was 10.4%.

For `Cc1ccc(-c2nnc(SCC(=O)Nc3ccc(N4CCOCC4)cc3)o2)cc1`, which “hERG current change (%, negative = inhibition) at 10uM” value is on record?
The value was -8.4%.

`O=C(Nc1nnc(-c2ccco2)o1)c1cccc2ccccc12` was tested. Which “hERG current change (%, negative = inhibition) at 10uM” value did it give?
Its value is -4.76%.

`C/C(=N\NC(=O)c1nnn(-c2nonc2N)c1-c1cccs1)c1ccc(O)cc1` was tested. Which “hERG current change (%, negative = inhibition) at 10uM” value did it give?
Its value is 1.86%.
